Test results from ChEMBL document CHEMBL4888484, “Replenishing the malaria drug discovery pipeline: Screening and hit evaluation of the MMV Hit Generation Library 1 (HGL1) against asexual blood stage Plasmodium falciparum ,using a nano luciferase reporter read-out” (2022).
Hit rate of the full screen: of about 150,000 compounds, about 540 (0.36%) showed an effect of 50% or more. This is one part of the list.

Each compound was assayed on Plasmodium falciparum (assay: Primary screen in NF54 nanoGlo assay, in single point, at 2uM, 72h; a lower Z score goes with more inhibition). Details: timepoint 72 hour.
Assay type: functional, Erythrocyte

| SMILES | % Inhibition | Z score |
| --- | --- | --- |
| O=C(ON1C(=O)CCC1=O)c1cccc(F)c1 | 34% | -3.87 |
| O=C(c1ccc2[nH]ccc2c1)N1CCN(C(=O)c2nnn3c2CO[C@H](c2ccccc2)C3)CC1 | -21% | 1.91 |
| N[C@@H](Cc1ccccc1)C(=O)N1CCN(C(=O)c2ccccc2)CC1 | 4% | -0.46 |
| CC(C)c1noc([C@H](C)NC(=O)C(=O)c2cccn2C)n1 | -3% | 0.38 |
| COc1ccccc1C(=O)N1CCc2nc(N3CCc4ccccc4C3)nc(N(C)C)c2C1 | -16% | 2.04 |
| Cc1cc(CNC(=O)COc2ccc(Cl)cc2)nc(N(C)C)n1 | 3% | -0.48 |
| COC(=O)[C@](O)(CC(=O)Nc1ccccc1Cl)C(F)(F)F | 2% | -0.35 |
| Cc1ccc(CNC(=O)c2cnc(NC3CC3)s2)n1C | -13% | 2.17 |
| CN(C)c1ccc(N2CCn3c2nc2c3c(=O)[nH]c(=O)n2C)cc1 | -3% | 0.74 |
| COCCN(c1ccncc1)S(=O)(=O)c1c(F)cccc1Cl | -9% | 0.86 |
| COc1ccc(NC(=O)[C@@H]2CCCCc3n[nH]c(=O)n32)cc1Cl | -13% | 1.29 |
| COCCOc1nc(-c2cccc(OC)c2)n(-c2ccc(NC(=O)c3ccc(F)cc3)cc2)n1 | -3% | 0.48 |
| C#CCN1C(=O)[C@]2(CC(=O)Nc3[nH]ncc32)c2ccccc21 | 6% | -0.96 |
| CCOc1ccc(C2=NC3(CCN(CC)CC3)N[C@H](c3cccc(OC)c3O)C2)cc1 | -9% | 0.98 |
| Nc1nc(O)cc(NCc2ccccc2)n1 | -11% | 1.24 |
| Clc1c(CN2CCCC2)cccc1Oc1ccc2c(c1)OCCO2 | 8% | -1.58 |
| O=C(O)c1ccc2c(NC3CCCC3)ncnc2c1 | -5% | 0.71 |
| CC(C)c1c[nH]nc1NC(=O)[C@H]1CC1(F)F | -17% | 2.46 |
| CCN1CCC2CCC(C1)N2CCC1CCC2(CC1)OCCO2 (configuration not stated) | -5% | 0.53 |
| Cc1cccc(-c2ncccc2CNC(=O)c2cccs2)c1 | 9% | -1.38 |
| CCC(=O)N1CCc2sc(S(=O)(=O)N3CCN(c4cc(C)ccc4C)CC3)cc2C1 | 23% | -6.61 |
| CCCc1cc(C(=O)N[C@H]2CCN(c3ccccc3F)C2)cc(=O)[nH]1 | -2% | 0.37 |

| SMILES | % Inhibition | Z score |
| --- | --- | --- |
| Cc1cccc(C2(c3cccc(C)c3)C[C@@H]2C(=O)Nc2nccs2)c1 | -2% | 0.26 |
| CC(C)Cc1nc(CCn2cncn2)n(-c2cccc3cccnc23)n1 | -13% | 1.84 |
| Cc1ccc2c(NC(=O)c3ccccc3)nn(C)c2n1 | -6% | 0.76 |
| O=C(CCNc1ccc(Cc2ccncc2)cc1)c1cc2ccccc2o1 | -38% | 3.48 |
| CCN1CC(CN(C)C(=O)NC2CC2c2ccccc2)Oc2ccccc21 (configuration not stated) | -8% | 0.82 |
| O=C(O)Cn1nccc1[C@H]1CCCN(Cc2ccc3c(c2)CCO3)C1 | -14% | 1.85 |
| CC1CN(C(=O)CCc2nc3ccccc3s2)CC(C)N1 (configuration not stated) | 1% | -0.08 |
| O=C(Nc1ccnn1C1CCC1)N1CCOCC1 | -24% | 2.4 |
| CCn1nc(C(=O)N2CCCCCC2)c2c1CC[C@H](NCc1ccccc1OC)C2 | -3% | 0.39 |
| CCOc1cc(N2CCOCC2)c(OCC)cc1NC(=O)c1cc(Cl)c2c(c1)OCCCO2 | 5% | -0.8 |
| Cc1nc(COC2CCN(C(=O)C3CC3C)C2)cs1 (configuration not stated) | -2% | 0.31 |
| CC(C)=C(C)CC(=O)NCc1cnn(C)c1C | 0% | 0.02 |
| O=C(Nc1ccccc1C(=O)N1CCCCC1)C1CCN(S(=O)(=O)Cc2ccccc2F)CC1 | 2% | -0.36 |
| CCn1nc(CO)c2c1CCN(C(=O)Nc1ccc3c(c1)C[C@H](C)O3)C2 | -3% | 0.41 |
| CC(c1cccc(C#N)c1)N1CCOC(COCC2CC2)C1 (configuration not stated) | -10% | 1.34 |
| O=C(N[C@@H](N1CCOCC1)C(Cl)(Cl)Cl)c1cccs1 | 6% | -0.87 |
| Cc1nn(-c2ccccc2Cl)c(=O)n1CC(=O)NCc1nnc2n1CCC2 | -17% | 1.89 |
| CCOc1ncc(NC(=O)Cc2ccc(OC)cc2)c(OCC)n1 | -4% | 0.68 |
| O=C(CCc1ccsc1)NC[C@H]1CC[C@@H](CO)O1 | -11% | 1.45 |
| O=C(NCC1CCN(c2nc(-c3ccc(F)cc3)cs2)CC1)c1ccon1 | 4% | -0.52 |
| O=C(Nc1ccncc1)C(=O)N1CCN(c2ccc(F)cc2)CC1 | -14% | 1.48 |
| Cn1c(=O)c(N2CCN(C(=O)c3cc(F)ccc3F)CC2)nc2cccnc21 | -3% | 0.33 |

| SMILES | % Inhibition | Z score |
| --- | --- | --- |
| Cc1ncccc1NC(=O)C(C)(C)C(F)F | -9% | 1.2 |
| Cc1nn(-c2ncc(F)cc2F)c(C)c1[C@@H]1CCC(=O)N1 | -2% | 0.25 |
| O=C(c1nc2ccccc2s1)N1CCN(c2cnsn2)CC1 | -11% | 1.36 |
| CC(C)(C)OC(=O)NC1CCC2CN(Cc3cnc4ccccc4c3)CC21 (configuration not stated) | -3% | 0.47 |
| COc1ccc(-c2nc(N3CCC(Cc4ccccc4)CC3)nc3nn(C)c(N)c23)cc1OC | 5% | -0.6 |
| Cc1c(COc2ccc(N)cc2)cnn1C | -22% | 4.17 |
| CC(=O)N1C[C@@H]2CCN(Cc3ccc(Br)o3)C[C@]2(CO)C1 | 7% | -0.98 |
| CCN(CC)S(=O)(=O)c1ccc(NC(=O)CN2CCC(=O)Nc3cc(F)ccc32)cc1 | 8% | -1.1 |
| CCN(Cc1cccs1)S(=O)(=O)C1(C)CC1 | -4% | 0.79 |
| FC1(F)CC12CCC(NCCn1cc(Br)cn1)CC2 (configuration not stated) | 1% | -0.15 |
| COC(=O)[C@@H]1CS(=O)(=O)[C@H](C)N1C(=O)C(F)(F)F | -36% | 4.18 |
| COc1cc(C[C@@]2(CCC(=O)N3CCC(Oc4cccc(F)c4)CC3)CCC(=O)N2)ccc1F | 9% | -1.18 |
| COc1cc(Cc2nccc3cc(OC)c(OC)cc23)c(-n2c(C)ccc2C)cc1OC | 6% | -0.9 |
| CCC1CC(C(=O)N2CCCCC2c2cnn(C)c2)CC(=O)N1 (configuration not stated) | -1% | 0.08 |
| Cc1ccc(Cc2c(C)nn(-c3nc(CC(=O)Nc4ccc(C)c(Cl)c4)cs3)c2C)cc1 | -2% | 0.42 |
| C[C@H]1Cc2cc(NC(=O)c3cc(C#N)cn3C)ccc2O1 | -12% | 1.59 |
| Cc1nnsc1C(=O)Nc1cc(C2CCC2)nn1-c1ccccc1 | -8% | 0.94 |
| c1cnnc(-c2noc(CCc3ccc4c(c3)OCO4)n2)c1 | 4% | -0.47 |
| CCC(=O)NCc1nc2c(n1C)CN(C(=O)c1ccc(F)cc1F)CC2 | -8% | 0.86 |
| NC(=O)N1CCC(N[C@H](c2cccc(Cl)c2)C2CCCCC2)CC1 | 3% | -0.36 |
| CCOc1ccc(NC(=O)c2cc(C)nc3c2c(C)nn3-c2ccc(CC)cc2)cc1 | 1% | -0.1 |
| Cc1ccccc1CCc1cc(NC(=O)c2n[nH]nc2C)[nH]n1 | -6% | 0.72 |

| SMILES | % Inhibition | Z score |
| --- | --- | --- |
| C1=CCC(COc2ccc3nccn3n2)C1 | 1% | -0.2 |
| CCC1CCC(NC(=O)N2CCC3(CC2)NC(=O)[C@H](CC)O3)CC1 (some centres not stated) | -18% | 2.76 |
| CCc1cc(C(=O)N2CCN(C)CC2)on1 | -10% | 1.46 |
| C[C@H](NS(=O)(=O)c1ccccc1C(F)(F)F)C(=O)Nc1ccc2[nH]c(=O)[nH]c2c1 | -3% | 0.37 |
| Cc1cc(-c2cc(S(=O)(=O)NCc3ccccc3)c(C)s2)on1 | 6% | -0.58 |
| CCOC(=O)c1nc(NCc2ccccc2OCC)c2c(-c3ccc(F)cc3)noc2n1 | -19% | 2.95 |
| CN(Cc1ccc(Cl)cc1)c1nc2ccccc2nc1NS(=O)(=O)c1ccc2c(c1)OCCO2 | -2% | 0.33 |
| Cn1nc(C2CC2)cc1NC(=O)N[C@@H]1COC2(CCCCC2)C1 | -8% | 1.44 |
| O=C(c1cc(C2CC2)on1)N1CC[C@H](Oc2ccncc2Cl)C1 | 4% | -0.7 |
| CCC1(CNC(=O)N2CC3CCC2CN3)OCCc2ccccc21 (configuration not stated) | 5% | -1.02 |
| CCOC(=O)c1cc(C2CC2)nc2cc(-c3ccccc3)nn12 | -7% | 0.93 |
| Cc1nn(C(F)F)cc1S(=O)(=O)N1CCC(Cc2ccccc2)CC1 | -4% | 0.44 |
| Nc1nc(C2CCCC2)ncc1C(=O)NC1C2CCOC2C12CCCC2 (configuration not stated) | -1% | 0.2 |
| CN1C[C@@H](NC(=O)c2cscn2)CCC1=O | -9% | 0.91 |
| C[C@H]1CCCN(c2ccc(C(=O)O)nn2)CC1 | 6% | -1.17 |
| Cn1cccc1C(=O)NC[C@@]12CCC=C1N(CC1CC1)C(=O)CC2 | -12% | 1.72 |
| CN(CC1CCC1)C(=O)NCCc1nccs1 | -3% | 0.47 |
| CCCN1CCN(C(=O)C(C)(C)OCC)CC1=O | 13% | -2.18 |
| COc1ccc2ncc3c(-c4ccccc4)n[nH]c3c2c1 | -11% | 1.31 |
| Cc1nccnc1CCNC(=O)[C@]1(C)CC[C@H](C)C1(C)C | -5% | 0.59 |
